Reference: the supplement of paper PMC3334620
The full ranking holds about 33,000 sequences; the median of “E-score (-0.5 to 0.5)” is about -0.012, and the highest 2% start at about 0.29. This is one part of the list.

Molecular target: T1, Ybr033w (UniProt P38073)
T1 sequence: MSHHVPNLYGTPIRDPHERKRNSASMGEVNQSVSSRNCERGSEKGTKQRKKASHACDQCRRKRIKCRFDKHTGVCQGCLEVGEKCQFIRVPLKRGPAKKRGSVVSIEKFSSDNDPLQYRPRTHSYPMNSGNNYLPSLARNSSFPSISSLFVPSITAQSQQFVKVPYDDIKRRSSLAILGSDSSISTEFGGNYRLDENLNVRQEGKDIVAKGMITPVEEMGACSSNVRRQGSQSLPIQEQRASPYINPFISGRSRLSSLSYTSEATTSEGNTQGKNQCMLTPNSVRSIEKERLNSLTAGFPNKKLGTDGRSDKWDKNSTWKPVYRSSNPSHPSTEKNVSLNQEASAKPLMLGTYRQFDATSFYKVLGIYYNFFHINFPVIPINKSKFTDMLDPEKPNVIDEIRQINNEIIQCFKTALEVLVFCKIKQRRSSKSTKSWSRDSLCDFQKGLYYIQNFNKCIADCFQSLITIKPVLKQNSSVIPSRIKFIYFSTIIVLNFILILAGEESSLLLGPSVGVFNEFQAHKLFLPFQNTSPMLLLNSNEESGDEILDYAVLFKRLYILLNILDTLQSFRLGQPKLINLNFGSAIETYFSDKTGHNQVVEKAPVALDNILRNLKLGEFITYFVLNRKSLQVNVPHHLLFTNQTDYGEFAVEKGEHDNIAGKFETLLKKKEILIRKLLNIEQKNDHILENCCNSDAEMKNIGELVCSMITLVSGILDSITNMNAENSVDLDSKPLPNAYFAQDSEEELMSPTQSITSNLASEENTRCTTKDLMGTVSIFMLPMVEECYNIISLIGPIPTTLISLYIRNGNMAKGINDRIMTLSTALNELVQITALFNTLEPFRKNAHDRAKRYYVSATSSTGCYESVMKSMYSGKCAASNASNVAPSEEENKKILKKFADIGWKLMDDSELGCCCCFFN
Test: PBM E-score (8-mer binding enrichment) (E-score (-0.5 to 0.5)); higher = stronger / more preferred TF binding; most listed sequences are background and not binding sites
Conditions: protein concentration: 200 nM; construct: GST-full length
Method: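 Universal 'all 10-mer' protein binding microarrays (Agilent AMADID 015681) probed with GST-tagged S. cerevisiae TFs (full-length or DBD) made by in vitro transcription/translation (PURExpress), about 100-200 nM. Bound TF was detected with fluorescent anti-GST. Each ungapped 8-mer (which stands for itself and its reverse complement) is scored by the PBM enrichment score (E-score), a modified Wilcoxon-Mann-Whitney statistic from -0.5 to +0.5, computed with the Universal PBM Analysis Suite. Scale: above 0.35 generally sequence-specific binding.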

Sequence | PBM E-score
GTAGTCAA | 0.0743
GGATAGCC | 0.0115
GCCCCTAC | -0.258
AGTTAAAA | 0.298
ACAAGGTA | 0.0991
CCTCGAAG | 0.0672
AGGTTATA | -0.0496
ATAAAGTC | 0.149
GGCTTCAA | -0.038
CCGTAGTA | 0.0986
GCTGAACA | -0.0139
ATACTGAT | 0.209
CAGCCGGC | 0.0044
CAGGGTAC | -0.158
AACCCGAT | 0.0784
AGAAGGCT | -0.173
GGGAGTGA | 0.0598
CTAACCAA | 0.154
TACGGTAA | 0.256
CAGCGCTA | -0.00056
CCTGACCC | -0.206
GACCCCTC | -0.227
GACCACAC | -0.0769
GCGCGCGC | 0.334
GGCCCTAC | -0.256

Sequence | PBM E-score
CCTTCTCA | -0.0332
CTTTGTGA | 0.113
AAAGAGTA | -0.0458
ACCCGGCC | -0.214
CGGAAGTC | -0.151
AGCTTTGA | 0.196
CCTGAAAG | -0.0253
GATTGGTA | 0.179
AGGCAACG | -0.117
ACATCACC | -0.216
CCATAAAA | 0.0566
ACAATATG | 0.199
CACTTACG | 0.204
AACGCCTG | -0.136
AATATATT | 0.411
CTTGAACC | 0.132
GACAGCCA | -0.0433
TCACAGAA | 0.149
ATCCCTTC | -0.012
ACTCTCCA | -0.207
AACGACGC | 0.0128
CAACCCGC | -0.0124
CGCCCAAA | 0.0399
CGCTGAAC | -0.0335
GCCAGTGA | -0.22

Sequence | PBM E-score
CTATACTC | -0.137
AGCCGCCC | -0.319
CTCGCGGC | -0.256
AGTCGCAC | -0.209
AATTCTTG | 0.232
CGATTCCC | -0.0324
AGTGAGTG | -0.00539
ACAAAATA | 0.168
CCGAACAG | -0.0132
CGTGTAGC | -0.137
GATGAATC | 0.186
ACTCTAAC | 0.17
GACCGCAC | -0.113
CTTATCGC | 0.0477
TGGCACCA | -0.255
ACGGTTCC | -0.0979
ATTGTGGG | -0.107
GCAGTCCA | -0.029
AGCGCGAT | 0.0558
GCTCCGAC | -0.259
ATTCTGCA | 0.118
ATCTGGGC | -0.0818
ATGCGCCA | 0.00426
AGACGTTC | 0.00705
CCAAACCG | 0.0166

Sequence | PBM E-score
GTCAAGAC | -0.0889
ACCTAAAG | 0.00176
ATCGAAAT | 0.119
CTGTAATC | -0.0614
AGAGATCA | -0.0351
ACGGAACT | 0.0148
CAAGTTCG | -0.058
ATCGACTA | -0.0267
ACCCAAGG | -0.051
TAACGGGA | -0.0136
CAAGATGA | -0.0119
TATCAGCA | 0.111
ATAATGGG | 0.152
ATATGTAA | 0.209
CAAGATAA | 0.155
CGGACGAC | -0.253
ACTCCGTA | 0.015
AGACCAGC | -0.253
CGCCGTTC | -0.167
ACGATCGG | -0.102
CCTGAGAC | -0.235
CATATATA | 0.182
GAGCTACA | -0.0703
AGGGACCC | -0.346
AGTAAAGC | 0.2

Sequence | PBM E-score
TCCTTTCA | 0.106
AACAGGAC | -0.0938
AACCGCCG | -0.0082
AGACAATG | 0.0738
AAATGCGC | 0.0741
GTGCAATA | 0.172
AACCGTTA | 0.0172
GATAATGA | 0.123
GACCCATA | -0.0357
AAGAAAGT | 0.115
AGGTGTCC | -0.0803
ACTCTATA | 0.065
CATCGTAA | 0.134
ACTCACGC | -0.116
GGTCATCA | 0.00449
AGGGAGAA | -0.114
CAACCAAA | 0.0906
ACAAGTAG | 0.0414
AACTCTAC | -0.0602
CCACTACA | 0.152
CATTGCTA | 0.132
CCTCTTAA | 0.108
CCAATTCG | 0.0116
ATTTCGCA | 0.192
AAGGTCTG | -0.153

Sequence | PBM E-score
AGTAAGCC | -0.149
CGTAAGTA | 0.126
AGATAAGC | 0.0061
CTCACATC | -0.00306
CCCAAAGG | -0.251
CTAATATA | 0.297
AAGACGCC | -0.095
AGGCCAGG | -0.0666
ATCAAAAG | 0.176
GCCGTGCA | -0.0276
TAACTGGA | 0.0793
GGCCTACC | -0.113
CCTAGGTC | -0.0537
ATGAGTAC | 0.156
CCTCGTAC | 0.0717
AACTTTTA | 0.271
CCTCAAAA | 0.123
GCTTTACC | 0.0841
CTGTCAAG | -0.157
GGAACCCC | -0.258
CTGACAAG | 0.0882
ACATCACA | 0.197
AACTACTA | 0.298
GCCGATTA | 0.0749
GCGTCAGA | -0.15

Sequence | PBM E-score
ATTGCCCC | -0.164
CCAGGCCC | -0.325
CCTACTAC | 0.0252
TCAATCGA | 0.041
ATCCCAAA | 0.13
AGAAACAG | -0.017
CAGAGTGG | -0.134
ACGTAGTG | -0.038
GATTACCA | 0.0921
CATTAGGG | -0.0832
AAAGTAGT | 0.114
AGACGCCT | -0.149
ACGGTGCC | -0.327
ACAAAGTC | 0.0213
CAGATATC | 0.0641
AGTGTCAA | -0.0622
ACTAGACT | -0.214
CCCGCACG | -0.0864
ACCTAGGT | -0.151
AGTGAAAA | 0.183
CCGCTGAC | -0.192
GTATCGCA | -0.015
